# In all, about 350,000 compounds went through this assay and about 9,900 (2.8%) were called active. The inconclusive results got no clear call from the source; some entries with a clear call stand among them for comparison. The call rests on the fitted dose curve; in most records, active means well fitted activation curve with a large enough effect; inconclusive means small, poorly fitted or top-dose-only effect; inactive means no such curve, though single readings can be large or run the other way. No potency is given beside an inconclusive call; the fits are too rough.
# Test: A quantitative high throughput screen for small molecules that induce DNA re-replication in MCF 10a normal breast cells. Further: nearly all actives have a fitted effect of over 50% in size. On activity, positive = re-replication: % of control where 0% means no effect.
# Details: MCF 10A DNA re-replication, Hoechst nuclear intensity, 48 h; activity, positive = re-replication: at 46.1 µM (top of the series)
# Potency means the concentration at half of the fitted maximal effect; tags describe the fitted curve by direction and shape.
Compound,Potency,"activity, positive = re-replication"
CCOc1ccc(Nc2oc(-c3cccc(Cl)c3)nc2C#N)cc1,active: 16.4 µM,
COc1ccc(C(=O)Nc2nc(-c3ccc(OC)cc3)c(-c3ccc([N+](=O)[O-])cc3)s2)cc1,"inconclusive [activator, partial curve]",
Clc1ccc(-n2ncc3c(NCCN4CCOCC4)ncnc32)cc1,"inconclusive [activator, single point]",
COc1cc(/C=C2/SC(=S)N(c3c(C)n(C)n(-c4ccccc4)c3=O)C2=O)ccc1O,"inconclusive [activator, single point]",
CC(=O)C(=Cc1cc(C)n(-c2ccccc2)c1C)C(C)=O,"inconclusive [activator, single point]",
CCCOc1ccc(-c2c(C(=O)N/N=C(\C)c3ccco3)nnn2-c2nonc2N)cc1,"inconclusive [activator, partial curve, poor fit]",
Cc1cc(-n2c(C)cc(C(=O)CSc3ccccn3)c2C)no1,,inactive: -12.5%
Cn1c(N)c(S(=O)(=O)c2ccc(Br)cc2)c2nc3ccccc3nc21,"inconclusive [activator, single point]",
COc1cc([N+](=O)[O-])ccc1NC(=O)Nc1ccc2c(c1)OCCO2,"inconclusive [activator, single point]",
O=C(/C=C/c1ccc([N+](=O)[O-])o1)NNC(=O)c1ccc(F)cc1,active: 9.2 µM,
CN(C)S(=O)(=O)N(CC(=O)N1CCC(Cc2ccccc2)CC1)c1ccccc1,,inactive: -6.66%
COc1ccc(S(=O)(=O)N/N=C\c2ccc([N+](=O)[O-])o2)c(OC)c1,"inconclusive [activator, single point]",
O=C(CSc1nc2ccccc2c(=O)[nH]1)Nc1nc(-c2ccc(Br)cc2)cs1,,inactive: 16.4%
CC1(C)Cc2c(sc3nc(-c4cccs4)n(N)c(=O)c23)CO1,"inconclusive [activator, single point]",
Cc1nn(-c2cccc(Cl)c2)c2nc(-c3ccncc3)cc(C(=O)N3CCOCC3)c12,"inconclusive [activator, single point]",
Nc1nc2n[nH]nc2c(=O)[nH]1,"inconclusive [activator, partial curve, poor fit]",
CC(C)Oc1ccc(Nc2ncnc3ccccc23)cc1,"inconclusive [activator, single point]",
O=C(Nc1ccc([N+](=O)[O-])cn1)c1cc(-c2cccc(Br)c2)nc2ccccc12,,inactive: -1.17%
CCCc1cc(=O)[nH]c(SCC(=O)Nc2cc(S(=O)(=O)N3CCOCC3)ccc2Cl)n1,"inconclusive [activator, partial curve, poor fit]",
Clc1ccc2nc(-c3cccc(SC4CCCCC4)c3)c(NCc3ccccc3)n2c1,"inconclusive [activator, full curve]",
CCn1c(C)nc2cc(-c3nnc(-c4c(-c5ccccc5)noc4C)o3)ccc21,"inconclusive [activator, partial curve, poor fit]",
N#C/C(=C/c1ccncc1)c1nc2ccccc2s1,"inconclusive [activator, partial curve, poor fit]",

Compound,Potency,"activity, positive = re-replication"
COc1ccccc1NC(=O)c1ccccc1NC(=O)c1cc(Cl)ccc1NC(=O)c1ccco1,"inconclusive [activator, full curve, poor fit]",
CC12CN(Cc3ccccc3)CC(C)(CN(Cc3ccccc3)C1)C2=O,,inactive: 2.18%
Brc1ccc(N=Cc2ccccn2)cc1,"inconclusive [activator, single point]",
CN1C2CCC1/C(=C/c1cccn1C)C(=O)/C2=C\c1cccn1C,,inactive: 12%
CC(C)Sc1nc(-c2ccccc2)cc(=O)[nH]1,"inconclusive [activator, single point]",
C[C@@H]1C(c2ccc(F)cc2)=NN(c2ccccc2)[C@H]1C(=O)N1CCOC1=O,"inconclusive [activator, partial curve, poor fit]",
Cc1ccc(S(=O)(=O)NCCC(=O)OCC(=O)NCCc2ccccc2)cc1C,,inactive: 6.59%
COc1cccc(SCc2noc(C(=O)NCC3CCCO3)c2C(=O)O)c1 (centres undefined),"inconclusive [activator, partial curve, poor fit]",
Cc1ccc(NC(=O)c2ccc(NCC3CCCO3)c([N+](=O)[O-])c2)cc1Cl (centres undefined),"inconclusive [activator, partial curve]",
c1ccc(-c2nc(N3CCOCC3)sc2-c2ccccc2)cc1,"inconclusive [activator, partial curve, poor fit]",
Cc1cc(=O)oc2cc(OCC(=O)Nc3ccc(CN4CCOCC4)cc3)c(Cl)cc12,,inactive: -0.679%
Cc1cc(C)cc(C(=O)NC(=S)Nc2ccc(Cc3ccncc3)cc2)c1,"inconclusive [activator, partial curve, poor fit]",
Cc1nc(S/C(=C/c2ccc(-c3cc(Cl)ccc3C)o2)C(=O)O)n[nH]1,"inconclusive [activator, single point]",
COC(c1ccccc1)c1nnc(CCC(=O)NCc2cccc(-n3cccn3)c2)o1 (centres undefined),,inactive: 3.76%
COc1ccc(CCNC(=O)CN2C(=O)C(=O)N(C3CCCC3)C2=O)cc1OC,,inactive: 0.202%
O=[N+]([O-])c1c(NCCCO)cc(N2CCN(Cc3ccc4c(c3)OCO4)CC2)c2nonc12,"inconclusive [activator, single point]",
CCN1CCN(c2ccc(S(=O)(=O)N3CCCCC3)cc2NC(=O)/C=C/c2ccc(OC(F)F)cc2)CC1,"inconclusive [activator, single point]",
CCCn1c(NC(=S)Nc2ccccc2)nc2ccccc21,"inconclusive [activator, partial curve, poor fit]",
C/C(CCC(C)C)=N\Nc1ccc(S(N)(=O)=O)cc1[N+](=O)[O-],"inconclusive [activator, single point]",
CCOC(=O)[C@@H](C)N(Cc1ccc(OC)cc1)S(=O)(=O)N(Cc1ccccc1)[C@H](C(=O)OC)C(C)C,"inconclusive [activator, single point]",
COc1cc(OC)cc(-c2n[nH]c(=S)n2-c2ccc3c(c2)OCCO3)c1,"inconclusive [activator, single point]",
COC(=O)C1=CN(Cc2ccc(OC)cc2)C=C(C(=O)OC)C1c1cc(OC)c(OC)c(OC)c1,"inconclusive [activator, single point]",

Compound,Potency,"activity, positive = re-replication"
COc1cccc2sc(Nc3nc4ccc(NC(C)=O)cc4s3)nc12,active: 3.26 µM,
S=c1[nH]nc(-c2cc(-c3ccsc3)n[nH]2)n1-c1cccc2ccccc12,,inactive: 0.833%
O=C1NC(=O)C(CCc2ccccc2)(c2ccccc2)N1 (centres undefined),"inconclusive [activator, single point]",
CCN(C(=O)COC(=O)c1ccccc1Nc1ccccc1)c1c(N)n(Cc2ccccc2)c(=O)[nH]c1=O,"inconclusive [activator, single point]",
COc1ccc(-c2cn3cccc(C)c3n2)cc1Br,"inconclusive [activator, single point]",
COc1cc(OC)c2c(-c3ccccc3)cc(=O)oc2c1C(CC(=O)N1CCCC1)c1ccc2c(c1)OCO2 (centres undefined),"inconclusive [activator, single point]",
Cc1ccc(C)c(NC(=O)c2ncn[nH]2)c1,"inconclusive [activator, full curve, poor fit]",
Cn1c(CNc2nc3ccccc3n2CCN2CCCCC2)nc2ccccc21,,inactive: 18.2%
Cn1c2c(c(=O)n(C)c1=O)C(C(F)(F)F)(C(F)(F)F)N=C(CCC1CCCCC1)N2,"inconclusive [activator, single point]",
COCCC(=O)N1CCC(Oc2ccc(C(=O)NCCC3=CCCCC3)cc2)CC1,"inconclusive [activator, partial curve]",
O=C(N/N=C/c1cn(-c2ccccc2)nc1-c1cccs1)c1ccccc1F,"inconclusive [activator, single point]",
Cc1ccc(S(=O)(=O)c2nc(-c3ccc(F)cc3)oc2SCC(=O)NCC2CCCO2)cc1 (centres undefined),"inconclusive [activator, single point]",
C=C1c2ccc(C)cc2NC(=O)N1c1ccccc1,"inconclusive [activator, single point]",
O=[N+]([O-])c1ccc(C2Oc3ccccc3C3CC(c4ccccc4)=NN32)s1 (centres undefined),active: 14.6 µM,
COc1cc(NC(=O)CN2C(=O)NC(c3ccccc3)(c3ccccc3)C2=O)cc(OC)c1,"inconclusive [activator, single point]",
CC1CN(CCN2CC(C)N(C=O)CC2C)C(C)CN1C=O (centres undefined),,inactive: 0.007%
Cc1ccc(S(=O)(=O)N(C(=O)c2ccco2)c2cc3sc(=O)oc3c3ccccc23)cc1,"inconclusive [activator, single point]",
COc1cc(OC)nc(NC(=O)C(C)C)n1,"inconclusive [activator, single point]",
CCCN(Cc1ccc(C)cc1)C(=O)c1ccc(CNS(=O)(=O)c2ccc(C(C)=O)cc2)cc1,,inactive: 48.4%
CCN(CC)S(=O)(=O)c1ccc2oc(Nc3ccccc3)nc2c1,"inconclusive [activator, single point]",
